In the supplement of paper PMC3334620:
Over roughly 33,000 sequences, “E-score (-0.5 to 0.5)” has its median near -0.054; the highest 2% begin near 0.35. The list shows a part of the results.

The sequences below were run against T1, Stb5 (UniProt P38699) (assay: PBM E-score (8-mer binding enrichment) (E-score (-0.5 to 0.5)); higher = stronger / more preferred TF binding; most listed sequences are background and not binding sites). Conditions: protein concentration: 200 nM; construct: GST-full length.
T1 sequence: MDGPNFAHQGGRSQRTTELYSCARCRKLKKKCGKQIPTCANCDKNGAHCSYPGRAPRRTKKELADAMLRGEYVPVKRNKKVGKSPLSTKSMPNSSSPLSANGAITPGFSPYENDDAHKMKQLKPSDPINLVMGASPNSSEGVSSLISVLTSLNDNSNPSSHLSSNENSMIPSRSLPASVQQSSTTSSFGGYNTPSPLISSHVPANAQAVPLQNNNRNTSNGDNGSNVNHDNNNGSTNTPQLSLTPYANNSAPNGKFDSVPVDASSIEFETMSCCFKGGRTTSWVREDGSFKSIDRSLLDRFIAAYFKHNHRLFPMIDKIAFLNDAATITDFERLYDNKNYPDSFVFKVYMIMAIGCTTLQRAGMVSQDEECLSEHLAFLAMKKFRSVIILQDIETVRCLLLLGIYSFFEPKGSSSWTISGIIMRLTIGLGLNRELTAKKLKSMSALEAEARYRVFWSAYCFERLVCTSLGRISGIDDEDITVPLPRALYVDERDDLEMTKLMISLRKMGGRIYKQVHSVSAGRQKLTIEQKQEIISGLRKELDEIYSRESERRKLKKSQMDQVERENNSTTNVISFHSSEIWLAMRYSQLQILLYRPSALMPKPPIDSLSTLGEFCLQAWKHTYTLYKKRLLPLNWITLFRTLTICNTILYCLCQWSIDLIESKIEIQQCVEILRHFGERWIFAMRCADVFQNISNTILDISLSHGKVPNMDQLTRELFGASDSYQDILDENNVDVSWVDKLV
Outline: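 Universal all-10-mer Agilent arrays, double-stranded by primer extension on fresh or once-stripped slides, were probed with about 100-200 nM GST-tagged yeast transcription factors made by PURExpress. Fluorescent anti-GST detected bound protein, and masliner normalised the scans. E-scores from the Universal PBM Analysis Suite were given to each ungapped eight-base word pooled with its reverse complement.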

Sequence	PBM E-score
ACTATAGT	-0.0208
AATATCAG	-0.00081
CTTGCCCA	-0.075
GACGGAAA	0.268
ACACGGGG	0.272
AGGAAACC	-0.0573
AGTCAGTG	-0.308
AGCAGCCT	-0.286
AAATTTCG	0.0172
GGGTAAAA	0.0855
CCGTAAAA	0.171
GCATTCGA	-0.145
CCCCCGCG	0.325
CAGCAAAA	-0.154
TCGTCTCA	-0.0724
CTCTTACC	0.063
CACCAACG	0.0702
AAAGCTAC	-0.102
CTCCTCTA	-0.102
AACGTTTC	-0.169
GGACGACA	-0.0763
GGTAGTGA	-0.0261
CGCAGAAA	-0.114
CAGTAAAG	-0.0298

Sequence	PBM E-score
CCGCGGAC	0.362
ATTGGCCC	0.0136
ATACTACA	-0.039
AACTTAAA	-0.119
CACCAGCG	-0.06
AATGAGAG	-0.228
AACACTGT	-0.22
CAGTTAGC	-0.144
AAACTGAG	0.014
AACGATCA	-0.245
GTGGCCGA	0.144
GTGGATTA	0.0199
AGCAGGAC	0.0795
CACTCAGA	-0.204
GATTCTCC	0.112
ATGACCGG	0.308
TATGTGGA	0.0363
AGTATTTC	0.00234
CCCCTGAC	-0.0846
CCCTTCAA	-0.0698
AAACTCGT	-0.156
AAATCGGT	0.273
TAGGAGAA	-0.261
ACTCGAGC	-0.134

Sequence	PBM E-score
AAGACAGT	-0.0774
AGTAGAAG	-0.231
ACAGGGGC	-0.0394
CCCCGAAC	0.285
CAGTGGTA	-0.159
AAGGGGAA	-0.188
GCACCCAC	-0.0635
ATAAGCGG	0.249
AATCTGGG	-0.147
AACAGACT	-0.168
AGCTAGGA	-0.226
ACTAGGAT	0.019
CCCGTACC	0.25
CTTCCCTA	-0.161
ACTCCAAA	-0.129
ACCATCCC	0.00047
AGTTGCCA	-0.15
CCTGTCGA	-0.237
CTGGTAAC	0.0464
AAAATGAG	-0.0189
AATGACGG	0.278
CACAGGGG	-0.176
CACTGTGC	-0.131
GGGGAAGA	-0.15

Sequence	PBM E-score
ATCGCTAG	-0.112
TGCGAACA	-0.0834
CTCCTCGC	-0.277
ATATGCGG	0.192
AGCCGCTC	0.216
AGCGCCAT	0.0179
ACGGAGTG	0.343
CAAGTACC	0.194
AGGTCGGC	0.293
AGATCCCT	-0.128
AACTCTAG	-0.33
AGCCGCTG	0.14
CACCTTCA	-0.0641
ACCCGTGA	-0.00082
CTGCTAAC	-0.215
ACCACACC	-0.0197
GGGACCCC	0.0378
AAGGAGGT	-0.0343
CGGACGCA	0.349
ATATTACG	-0.0127
CCACCCCA	-0.29
CATAAGTA	-0.0678
